The densities may have been worked out from excess volumes.
Test: xn = mol fraction of the nth substance listed
Conditions: 101 kPa

CCOS(=O)(=O)[O-].CC[n+]1ccn(C)c1 + CC(=O)O
x2 = 0
Conditions | mass density [kg/m3]
293.15 K | 1240.3
298.15 K | 1236.9
303.15 K | 1233.5

CCOS(=O)(=O)[O-].CC[n+]1ccn(C)c1 + CCC(=O)O
x2 = 0
Conditions | mass density [kg/m3]
293.15 K | 1240.3
298.15 K | 1236.9

CC(=O)O + CCOS(=O)(=O)[O-].CC[n+]1ccn(C)c1
mass density [kg/m3]
Conditions | 293.15 K | 298.15 K | 303.15 K | 308.15 K | 313.15 K
x1 = 0.0978 | – | – | 1228.4 | 1225 | –
x1 = 0.1993 | – | 1225.7 | 1222.2 | 1218.7 | 1215.2
x1 = 0.308 | 1221.4 | 1217.9 | 1214.3 | 1210.8 | 1207.2
x1 = 0.4031 | 1212.9 | – | 1205.6 | – | –
x1 = 0.4737 | 1205.4 | 1201.7 | 1198.1 | 1194.4 | 1190.7
x1 = 0.5975 | 1189 | 1185.2 | 1181.4 | 1177.6 | –
x1 = 0.701 | 1171 | 1167 | 1163 | 1159.1 | 1155.1
x1 = 0.8057 | – | – | – | 1133.8 | 1129.6
x1 = 0.8973 | 1115.3 | 1110.7 | – | 1101.4 | 1096.8
x1 = 0.9512 | – | 1082.3 | 1077.3 | 1072.3 | 1067.2
x1 = 1 | 1049.8 | – | 1038.5 | 1032.8 | 1027.2

CCC(=O)O + CCOS(=O)(=O)[O-].CC[n+]1ccn(C)c1
mass density [kg/m3]
Conditions | 293.15 K | 298.15 K | 303.15 K | 308.15 K | 313.15 K
x1 = 0.0818 | – | 1229.7 | 1226.3 | 1222.9 | 1219.4
x1 = 0.1678 | 1224.7 | 1221.2 | 1217.7 | 1214.2 | 1210.7
x1 = 0.2655 | 1213.7 | – | 1206.7 | – | 1199.6
x1 = 0.3539 | 1202.2 | 1198.6 | 1195 | – | 1187.9
x1 = 0.4224 | 1192.1 | 1188.4 | 1184.8 | 1181.2 | 1177.6
x1 = 0.5516 | 1168.9 | 1165.1 | 1161.4 | 1157.6 | 1153.9
x1 = 0.6556 | 1145.6 | 1141.8 | 1137.9 | 1134 | 1130.2
x1 = 0.7707 | 1112.6 | 1108.6 | 1104.5 | 1100.4 | 1096.4
x1 = 0.8774 | 1070.1 | 1065.7 | 1061.3 | 1056.9 | –
x1 = 0.9405 | 1035.4 | 1030.6 | 1025.8 | – | 1016.2
x1 = 1 | 993.3 | 987.9 | 982.5 | 977.1 | 971.8
